Source: the antibiotic and cytotoxicity screens of Wong et al. (2023)
The other results are listed elsewhere or left out.

Each molecule was assayed on HepG2 (assay: cytotoxicity call (relative viability < 0.9)). Conditions: 10 µM.
For `Cc1ccc(S(=O)(=O)Nc2ccc3c(c2)C(=O)N([C@H](C)CO)C[C@@H](C)[C@@H](CN(C)Cc2ccc4c(c2)OCO4)OCCCC[C@@H](C)O3)cc1`, the cytotoxicity call was “active”.
For `N[C@@H](C(=O)N[C@@H]1C(=O)N2C(C(=O)O)=C(Cl)CC[C@H]12)c1ccccc1`, the cytotoxicity call was “inactive”.
For `C[C@H]1CCCCO[C@@H](CN(C)C(=O)NC2CCCCC2)[C@@H](C)CN([C@@H](C)CO)C(=O)c2cc(NS(=O)(=O)c3cccs3)ccc2O1`, the cytotoxicity call was “inactive”.
In the case of `COc1ccc2c3c(n(c2c1)C)[C@@H](CO)N(C[C@]13CCN(CC1)Cc1cccc(c1)F)C(=O)Nc1ccc(cc1)F`, the cytotoxicity call is reported as “inactive”.
In the case of `Cc1ccc(S(=O)(=O)N(C)C[C@H]2OCCCC[C@H](C)Oc3ccc(NC(=O)c4ccccc4)cc3C(=O)N([C@@H](C)CO)C[C@H]2C)cc1`, the cytotoxicity call is reported as “inactive”.
With `C[C@@H]1CN([C@@H](C)CO)C(=O)Cc2cc(NS(=O)(=O)c3ccc(Cl)cc3)ccc2O[C@H]1CN(C)C(=O)Nc1cccc2ccccc12` the cytotoxicity call was “inactive”.
`C[C@H](CO)N1C[C@H](C)[C@@H](CN(C)S(=O)(=O)c2cn(C)cn2)Oc2ccc(NS(=O)(=O)c3cccs3)cc2CC1=O` was tested, and the cytotoxicity call was “inactive”.
With `C[C@H]1CN([C@@H](C)CO)C(=O)c2ccccc2-c2ccccc2CO[C@@H]1CN(C)C(=O)Nc1cccc(Cl)c1Cl` the cytotoxicity call was “inactive”.

These molecules were tested on S. aureus RN4220 (assay: growth inhibition call (relative growth <= 0.2)). Conditions: 50 µM.
`C[C@@H]1CCCCO[C@H](CN(C)Cc2ccc3c(c2)OCO3)[C@H](C)CN([C@@H](C)CO)C(=O)c2cc(NC(=O)NC3CCCCC3)ccc2O1` was tested, and the growth inhibition call was “inactive”.
For `CO[C@H]1[C@@H](O)[C@H](n2ccc(N)nc2=O)O[C@@H]1CO`, the growth inhibition call was “inactive”.
In the case of `C=CC[C@@H](CC(=O)NCCO)C(=O)N[C@@H](COC(=O)[C@@H](CC=C)CC(=O)OC(C)(C)C)Cc1c[nH]c2ccccc12`, the growth inhibition call is reported as “inactive”.
With `CCCNC(=O)C[C@@H]1CC[C@@H]2[C@H](COc3ccc(NC(=O)c4ccc5c(c4)OCO5)cc3C(=O)N2C)O1` the growth inhibition call was “inactive”.
`COCC#Cc1ccc2c(c1)O[C@H](CN(C)Cc1ccc(F)cc1)[C@H](C)CN([C@H](C)CO)S2(=O)=O` was tested, and the growth inhibition call was “inactive”.
With `O=C(C[C@H]1CC[C@@H]2[C@H](COC[C@H](O)CN2S(=O)(=O)c2cccc(Cl)c2)O1)NCc1ccc2c(c1)OCO2` the growth inhibition call was “inactive”.
In the case of `C[C@@H]1CN([C@@H](C)CO)C(=O)c2cccc(NC(=O)c3cnccn3)c2O[C@@H]1CN(C)Cc1ccncc1`, the growth inhibition call is reported as “inactive”.
With `Cn1cnc(S(=O)(=O)N2C[C@@H](O)COC[C@@H]3O[C@@H](CC(=O)NCc4cc(F)cc(F)c4)CC[C@H]32)c1` the growth inhibition call was “inactive”.
For `C[C@@H]1CCCCO[C@@H](CN(C)C(=O)C2CCCCC2)[C@H](C)CN([C@@H](C)CO)C(=O)c2cc(NC(=O)Nc3ccc(C(F)(F)F)cc3)ccc2O1`, the growth inhibition call was “inactive”.
For `Cl.Cl.O=C(O)COCCN1CCN(C(c2ccccc2)c2ccc(Cl)cc2)CC1` (stereo not drawn), the growth inhibition call was “inactive”.
In the case of `C[C@H]1CN([C@@H](C)CO)C(=O)c2cccc(NC(=O)C3CC3)c2O[C@H]1CN(C)S(=O)(=O)c1ccc(Cl)cc1`, the growth inhibition call is reported as “inactive”.
For `CCOC(=O)c1c(C)cc(O)c(C=O)c1O`, the growth inhibition call was “active”.
With `CN1C(=O)c2cc(NC(=O)Nc3cccc(C#N)c3)ccc2OC[C@H]2O[C@@H](CC(=O)Nc3ccc4c(c3)CCC4)CC[C@@H]21` the growth inhibition call was “inactive”.
With `COCC#Cc1ccc2c(c1)O[C@@H](CN(C)C(=O)COC)[C@@H](C)CN([C@@H](C)CO)S2(=O)=O` the growth inhibition call was “inactive”.
In the case of `COc1ccc(S(=O)(=O)Nc2ccc3c(c2)CC(=O)N([C@@H](C)CO)C[C@H](C)[C@@H](CN(C)CC2CC2)O3)cc1`, the growth inhibition call is reported as “inactive”.
With `CCOc1ccc(C(=O)Nc2ccc(S(=O)(=O)N3CCCC[C@@H]3c3cccnc3)cc2)cc1OCC` the growth inhibition call was “inactive”.
For `C[C@H](CO)N1C[C@H](C)[C@@H](CN(C)S(=O)(=O)c2cn(C)cn2)Oc2ccc(NC(=O)NC3CCCCC3)cc2CC1=O`, the growth inhibition call was “inactive”.
`N#C[C@H](c1ccccn1)N1CCOCC1` was tested, and the growth inhibition call was “inactive”.
With `C[C@@H]1CN([C@H](C)CO)C(=O)c2cc(NC(=O)Nc3ccccc3)ccc2O[C@@H]1CN(C)C(=O)Nc1ccc(C(F)(F)F)cc1` the growth inhibition call was “inactive”.
With `C[C@H]1CN([C@@H](C)CO)C(=O)c2c(c3ccccc3n2C)-c2ccccc2CO[C@@H]1CN(C)C(=O)Nc1cccc(F)c1` the growth inhibition call was “inactive”.
For `COc1ccc(NC(=O)N(C)C[C@@H]2OCCCC[C@H](C)Oc3ccc(NC(=O)Nc4ccc(C(F)(F)F)cc4)cc3C(=O)N([C@@H](C)CO)C[C@@H]2C)cc1`, the growth inhibition call was “inactive”.
`COCC(=O)N1[C@@H]2CC[C@H]1COC2` was tested, and the growth inhibition call was “inactive”.
For `C[C@@H]1CN([C@H](C)CO)C(=O)c2cccc(NC(=O)Nc3ccc(C(F)(F)F)cc3)c2O[C@@H]1CN(C)C(=O)NC1CCCCC1`, the growth inhibition call was “inactive”.
`O=C(C[C@H]1C=C[C@@H](NC(=O)c2cccnc2)[C@H](CO)O1)NCc1ccncn1` was tested, and the growth inhibition call was “inactive”.
For `C[C@@H](O)C#Cc1ccc2c(c1)O[C@@H](CN(C)C(=O)Cc1ccccn1)[C@@H](C)CN([C@@H](C)CO)S2(=O)=O`, the growth inhibition call was “inactive”.
With `CO[C@H]1CN(C)C(=O)c2cc(NC(=O)CC(F)(F)F)ccc2OC[C@@H](C)N(S(=O)(=O)c2cn(C)cn2)C[C@@H]1C` the growth inhibition call was “inactive”.
`O=C(CN1CCOCC1)N[C@@H]1CC[C@H](CCn2cc(C3CC3)nn2)O[C@@H]1CO` was tested, and the growth inhibition call was “inactive”.
With `CC(C)(Oc1ccc(Cl)cc1)C(=O)O` the growth inhibition call was “inactive”.
In the case of `CN1C(=O)c2cc(NC(=O)C3CCC3)ccc2OC[C@H]2O[C@H](CC(=O)NCCc3ccncc3)CC[C@@H]21`, the growth inhibition call is reported as “inactive”.
In the case of `C[C@H](CO)N1C[C@H](C)[C@@H](CN(C)C(=O)NC2CCCCC2)OCCCC[C@H](C)Oc2ccc(NC(=O)Cc3ccccc3)cc2C1=O`, the growth inhibition call is reported as “inactive”.
With `Cc1ccc(S(=O)(=O)Nc2cccc3c2O[C@@H](CN(C)CC2CC2)[C@@H](C)CN([C@@H](C)CO)C3=O)cc1` the growth inhibition call was “inactive”.
With `O=C(C[C@@H]1C[C@@H]2c3cc(NC(=O)Cc4ccncc4)ccc3O[C@@H]2[C@H](CO)O1)NCc1cc(F)ccc1F` the growth inhibition call was “inactive”.
With `Cc1ccc(S(=O)(=O)Nc2ccc3c(c2)C(=O)N([C@H](C)CO)C[C@@H](C)[C@@H](CN(C)Cc2ccc4c(c2)OCO4)OCCCC[C@@H](C)O3)cc1` the growth inhibition call was “inactive”.
`N[C@@H](C(=O)N[C@@H]1C(=O)N2C(C(=O)O)=C(Cl)CC[C@H]12)c1ccccc1` was tested, and the growth inhibition call was “active”.
In the case of `C[C@H]1CCCCO[C@@H](CN(C)C(=O)NC2CCCCC2)[C@@H](C)CN([C@@H](C)CO)C(=O)c2cc(NS(=O)(=O)c3cccs3)ccc2O1`, the growth inhibition call is reported as “inactive”.
`COc1ccc2c3c(n(c2c1)C)[C@@H](CO)N(C[C@]13CCN(CC1)Cc1cccc(c1)F)C(=O)Nc1ccc(cc1)F` was tested, and the growth inhibition call was “inactive”.
With `Cc1ccc(S(=O)(=O)N(C)C[C@H]2OCCCC[C@H](C)Oc3ccc(NC(=O)c4ccccc4)cc3C(=O)N([C@@H](C)CO)C[C@H]2C)cc1` the growth inhibition call was “inactive”.
For `C[C@@H]1CN([C@@H](C)CO)C(=O)Cc2cc(NS(=O)(=O)c3ccc(Cl)cc3)ccc2O[C@H]1CN(C)C(=O)Nc1cccc2ccccc12`, the growth inhibition call was “inactive”.
With `C[C@H](CO)N1C[C@H](C)[C@@H](CN(C)S(=O)(=O)c2cn(C)cn2)Oc2ccc(NS(=O)(=O)c3cccs3)cc2CC1=O` the growth inhibition call was “inactive”.
With `C[C@H]1CN([C@@H](C)CO)C(=O)c2ccccc2-c2ccccc2CO[C@@H]1CN(C)C(=O)Nc1cccc(Cl)c1Cl` the growth inhibition call was “inactive”.
